Assay results taken from paper PMC4336329 (PLoS ONE, 2015).
About 2,200 (0.71%) of roughly 310,000 compounds showed an effect of 50% or more. Effects have a minus sign here. The list shows a part of the results.

Each compound was assayed against human ether-à-go-go-related gene (hERG) potassium channel (human, UniProt Q12809) (assay: primary screen, population patch clamp on CHO cells stably expressing hERG).
human ether-à-go-go-related gene (hERG) potassium channel, sequence (Q12809 whole entry, looked up): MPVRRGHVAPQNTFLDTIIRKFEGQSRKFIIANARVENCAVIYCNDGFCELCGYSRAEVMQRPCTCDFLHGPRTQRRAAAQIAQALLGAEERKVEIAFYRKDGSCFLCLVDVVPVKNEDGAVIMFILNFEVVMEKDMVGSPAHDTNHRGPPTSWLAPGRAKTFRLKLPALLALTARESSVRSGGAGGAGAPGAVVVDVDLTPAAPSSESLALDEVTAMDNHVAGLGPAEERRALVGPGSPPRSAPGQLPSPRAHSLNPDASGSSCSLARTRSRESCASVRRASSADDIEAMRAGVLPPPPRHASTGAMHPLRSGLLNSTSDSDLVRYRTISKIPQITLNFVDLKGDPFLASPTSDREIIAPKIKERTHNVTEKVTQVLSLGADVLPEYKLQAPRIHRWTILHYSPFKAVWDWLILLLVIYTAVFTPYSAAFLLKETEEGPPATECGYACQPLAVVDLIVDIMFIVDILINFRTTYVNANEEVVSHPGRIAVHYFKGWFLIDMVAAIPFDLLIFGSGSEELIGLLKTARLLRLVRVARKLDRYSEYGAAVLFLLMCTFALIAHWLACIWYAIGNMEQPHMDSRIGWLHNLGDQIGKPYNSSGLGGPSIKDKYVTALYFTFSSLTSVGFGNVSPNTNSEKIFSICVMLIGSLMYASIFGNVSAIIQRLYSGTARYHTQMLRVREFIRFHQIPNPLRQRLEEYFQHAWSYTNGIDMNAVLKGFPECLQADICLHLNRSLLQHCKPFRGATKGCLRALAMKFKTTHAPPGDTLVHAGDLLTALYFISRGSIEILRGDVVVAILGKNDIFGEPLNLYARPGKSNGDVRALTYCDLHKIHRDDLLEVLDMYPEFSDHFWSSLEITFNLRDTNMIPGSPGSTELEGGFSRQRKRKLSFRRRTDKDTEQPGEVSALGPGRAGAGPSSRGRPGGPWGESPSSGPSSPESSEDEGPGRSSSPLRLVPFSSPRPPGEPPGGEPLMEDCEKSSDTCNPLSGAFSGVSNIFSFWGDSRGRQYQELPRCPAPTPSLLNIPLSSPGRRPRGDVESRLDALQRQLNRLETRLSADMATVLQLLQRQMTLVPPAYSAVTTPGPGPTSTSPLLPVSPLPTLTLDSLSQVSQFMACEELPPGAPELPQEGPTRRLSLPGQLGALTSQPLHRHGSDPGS
In the case of `COC(=O)C1C(O)=C(C(C)=N)C(=O)CC1(C)C` (stereo not shown), the “hERG current change (%, negative = inhibition) at 1uM” value was 15.6%.
For `COCC(=O)N/N=C\c1ccccc1OC/C=C/c1ccccc1`, the “hERG current change (%, negative = inhibition) at 1uM” value was 7.47%.
For `O=C(Nc1ccc2c(c1)OCO2)c1ccc(CN2CCOCC2)cc1`, the “hERG current change (%, negative = inhibition) at 1uM” value was 10.8%.
For `CCCn1c(NC(=O)CCNC(=O)c2ccccc2Cl)nc2ccccc21`, the “hERG current change (%, negative = inhibition) at 1uM” value was 4.07%.
For `CCSCc1nnc(SCC(=O)Nc2cccc(C(C)=O)c2)n1C`, the “hERG current change (%, negative = inhibition) at 1uM” value was 8.37%.
For `Cc1ccc(S(=O)(=O)Nc2nc3ccc(S(=O)(=O)N4CCCC4)cc3s2)cc1`, the “hERG current change (%, negative = inhibition) at 1uM” value was 15.3%.
`CCOC(=O)c1cc(CC)sc1N1C(=O)CC(Sc2ccccc2C(=O)O)C1=O` (stereo not shown) was tested, and the “hERG current change (%, negative = inhibition) at 1uM” value was 9.81%.
With `COc1ccccc1C(O)Cc1nc2ccccc2n1C` (stereo not shown) the “hERG current change (%, negative = inhibition) at 1uM” value was 13%.
In the case of `Cl.O=S(=O)(NCCN1CCOCC1)c1cccs1`, the “hERG current change (%, negative = inhibition) at 1uM” value was -23.3%.
With `O=C(CCSc1ccc(Cl)cc1)N1CCN(c2ccc(O)cc2)CC1` the “hERG current change (%, negative = inhibition) at 1uM” value was 0.0976%.
With `CNCc1ccccc1Sc1cccc2ccccc12.O=C(O)/C=C\C(=O)O` the “hERG current change (%, negative = inhibition) at 1uM” value was 7.08%.
For `COc1ccccc1NC(=O)c1ccc(C)c(S(=O)(=O)N2CCCCC2)c1`, the “hERG current change (%, negative = inhibition) at 1uM” value was 13.1%.
In the case of `COc1ccc(N/C(C)=C/C(=S)Nc2ccccc2)cc1`, the “hERG current change (%, negative = inhibition) at 1uM” value was 12.2%.
For `CCCCn1c(=O)[nH]c(=O)c2c1nc(-c1ccccc1F)n2Cc1ccccc1OC`, the “hERG current change (%, negative = inhibition) at 1uM” value was 23.9%.
With `Cc1cccc(C)c1OCC(=O)NCC1CCCO1` (stereo not shown) the “hERG current change (%, negative = inhibition) at 1uM” value was 4.76%.
With `CS(=O)(=O)N1CCN(C(=O)c2csc3ccccc23)CC1` the “hERG current change (%, negative = inhibition) at 1uM” value was 11.6%.
For `CCOc1ccccc1Nc1cc(C)c2cccc(C)c2n1`, the “hERG current change (%, negative = inhibition) at 1uM” value was 15.8%.
`CO[C@@]1(NC(=O)CSCC#N)C(=O)N2C(C(=O)[O-])=C(CSc3nnnn3C)CS[C@@H]21.[Na+]` was tested, and the “hERG current change (%, negative = inhibition) at 1uM” value was 8.22%.
For `OCCC1CN(Cc2cccc3nccnc23)CCN1C1CCCC1` (stereo not shown), the “hERG current change (%, negative = inhibition) at 1uM” value was 3.17%.
For `O=C(Nc1ccccc1F)c1ccccc1-c1ccc(C(F)(F)F)cc1`, the “hERG current change (%, negative = inhibition) at 1uM” value was -1.07%.
For `CCn1c(CCNC(=O)c2cccs2)nnc1SCC(=O)Nc1nc(-c2ccccc2)cs1`, the “hERG current change (%, negative = inhibition) at 1uM” value was -2.24%.
For `Nc1nc(N2CCN(c3ccc(F)cc3)CC2)n[nH]1`, the “hERG current change (%, negative = inhibition) at 1uM” value was 10.1%.
For `O=C(NC1CCCC1)C1CCC(=O)N1CCc1ccccc1` (stereo not shown), the “hERG current change (%, negative = inhibition) at 1uM” value was 10.9%.
For `COc1ccc(N2CC(NC(=O)N(C)CCC#N)CC2=O)cc1` (stereo not shown), the “hERG current change (%, negative = inhibition) at 1uM” value was 12.6%.
With `CCOc1ccc(N2C(=O)CC(N(CCc3ccc(OC)c(OC)c3)C(=O)/C=C/C(=O)O)C2=O)cc1` (stereo not shown) the “hERG current change (%, negative = inhibition) at 1uM” value was 9.09%.
